SMILES strings stand for the structures. Whole data set: some 110,000 compounds, median “z-score” near -0.1, cut for the highest 2% near 2. Some of the results follow. The source made the active and inactive calls.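 Rule for the calls: active = z-score in the third read window above 3 or below -3; inactive = the rest.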 Residues, ends and D or L forms follow the SMILES beside them. *: point of attachment. PhAc = O=C(Cc1ccccc1)*; OBn = c1ccc(CO*)cc1

For this test, the target named is Metabotropic glutamate receptor 8 (Rattus norvegicus) (UniProt P70579). The test is described as follows: rat mGluR8 modulators via GIRK flux, primary screen, cell-based, thallium flux, HTS (AID 488969). The settings on record: HEK293 rat mGluR8, GIRK (G protein-gated inwardly rectifying potassium channel) thallium flux, FluoZin2; at 10 µM; stronger effect = higher value; submaximal glutamate (EC20) added with thallium.
Sequence of UniProt P70579 (P70579 whole entry, looked up): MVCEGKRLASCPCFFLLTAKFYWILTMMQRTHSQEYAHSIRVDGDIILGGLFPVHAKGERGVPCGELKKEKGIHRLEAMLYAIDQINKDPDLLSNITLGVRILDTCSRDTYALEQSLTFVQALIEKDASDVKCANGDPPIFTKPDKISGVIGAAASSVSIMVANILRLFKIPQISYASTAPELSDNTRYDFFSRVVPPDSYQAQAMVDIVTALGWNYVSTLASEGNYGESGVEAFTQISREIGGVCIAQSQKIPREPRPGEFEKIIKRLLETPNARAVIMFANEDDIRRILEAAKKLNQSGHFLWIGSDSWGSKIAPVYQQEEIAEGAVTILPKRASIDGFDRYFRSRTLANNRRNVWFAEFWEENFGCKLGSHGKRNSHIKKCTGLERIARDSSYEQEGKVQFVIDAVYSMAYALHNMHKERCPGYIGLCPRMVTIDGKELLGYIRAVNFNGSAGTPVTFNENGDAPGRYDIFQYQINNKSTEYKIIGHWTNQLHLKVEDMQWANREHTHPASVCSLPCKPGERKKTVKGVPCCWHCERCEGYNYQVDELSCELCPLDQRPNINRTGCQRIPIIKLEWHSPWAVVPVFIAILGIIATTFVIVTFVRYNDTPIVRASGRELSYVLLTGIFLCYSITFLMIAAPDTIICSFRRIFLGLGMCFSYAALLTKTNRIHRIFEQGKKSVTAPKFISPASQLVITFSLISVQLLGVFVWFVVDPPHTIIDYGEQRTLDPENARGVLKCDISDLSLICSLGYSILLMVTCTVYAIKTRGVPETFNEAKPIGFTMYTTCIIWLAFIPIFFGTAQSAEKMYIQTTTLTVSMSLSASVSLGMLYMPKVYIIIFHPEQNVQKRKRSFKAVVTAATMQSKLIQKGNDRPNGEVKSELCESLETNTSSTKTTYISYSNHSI
`Cc1cccc(-n2cnc(C(=O)N/N=C\c3ccc(Br)cc3)c2)n1`: the z-score is -0.288.

In turn, `Cc1nn(-c2ccc(F)cc2)c(C)c1NS(=O)(=O)c1ccc2ccccc2c1` registered a z-score of -2.14.

With `CCCCNS(=O)(=O)c1ccc2nc(SCC(=O)Nc3ccccc3Cl)[nH]c2c1`, the z-score was found to be 0.0355.

`Cc1ccc(/C=C/C(=O)Nc2ncc(C)s2)o1` returned a z-score of -0.48.

`S=C(NCCC1=CCCCC1)Nc1ccccc1`: the z-score is 0.0488.

In turn, `CCC(C)NC(=O)Cn1c(=O)n(-c2ccccc2)c(=O)c2ccc(C(=O)NCc3ccco3)cc21` (stereo unspecified) registered a z-score of 0.899.

Compound `Cc1ccc(-c2cc(-c3cccs3)[nH]n2)c(O)c1` gave a z-score of 2.77.

The compound `COc1ccc(Br)cc1C(=O)Nc1ccc(Cc2ccncc2)cc1` had a z-score of -0.203.

Turning to `CC(C)Cn1cc(C(=O)NCC2CCCO2)c2c3ccccc3n(C)c2c1=O` (stereo unspecified), the z-score is -0.552.

With `Cc1c(C(=O)OCC(C)C)[nH]c2c1C(=O)CC(c1cccs1)C2` (stereo unspecified), the z-score was -0.347.

`CC1=C(C(=O)N2CCOCC2)C(c2cc(C)cs2)NC(=O)N1` (stereo unspecified) displayed a z-score of 0.566.

With `COC(=O)c1ccc(NC(=O)CN2C(=O)CNC2=O)cc1`, the z-score is 0.0202.

Compound `O=C(CCCOc1ccc(Cl)cc1Cl)N/N=C/c1ccccc1` yielded a z-score of 0.0235.

Consider `Clc1ccc(-c2nc3n(n2)Cc2ccccc2-3)cc1`, for which the z-score is -0.0134.

In turn, `O=C(COc1cccc2c1CCN(Cc1ccccc1)C2=O)NCc1ccco1` showed a z-score of -0.446.

Turning to `CC1CN(C(=S)SCC(=O)c2ccc(Cl)cc2)CC(C)O1` (stereo unspecified), the z-score was -0.281.

With `COc1cccc(NC(=O)N(Cc2cc3cc(C)cc(C)c3[nH]c2=O)CC2COCCO2)c1` (stereo unspecified), the z-score is -0.438.

In turn, `COc1cc(C2CC(=O)c3cnc(N)nc3C2)cc(OC)c1OC` (stereo unspecified) yielded a z-score of -0.369.

As to `Cc1ccc2cccc(Oc3ncnc4sc(C)c(C)c34)c2n1`, the z-score was -0.904.

`CC1(C)CC(=O)C(=Cc2cn(-c3ccccc3)nc2-c2ccc(Cl)cc2)C(=O)C1` came in with a z-score of -0.347.

In turn, `O=C(N/N=C\c1ccc(Cl)s1)c1ccc(Cn2cccn2)o1` registered a z-score of -0.34.

On to `CCOC(=O)Cn1c(=N)n(CCOc2cccc(C)c2)c2ccccc21`, for which the z-score was active: 3.95.

Regarding `Cc1ccc2c(c1)c(=O)c(Br)c(C)n2Cc1ccccc1`, the z-score is -0.0481.

The compound `O=C(Nc1ccc(-c2nc3ccccc3[nH]2)cc1)c1ccc2c(c1)OCO2` had a z-score of 0.00562.

`COc1cc(/C=C2/NC(=O)N(Cc3ccccc3F)C2=O)ccc1Oc1ccc([N+](=O)[O-])cn1` showed a z-score of -0.0118.

In turn, `CCC(C(=O)N1CCN(C(=O)c2ccco2)CC1)c1ccccc1` (stereo unspecified) returned a z-score of 0.0759.

Turning to `Cc1cc(Cl)cc(Cl)c1CNc1c([N+](=O)[O-])c(=O)oc2ccccc12`, the z-score is -0.529.

The compound `Cc1nc(C#N)c(NCc2ccc3c(c2)OCO3)o1` gave a z-score of -0.138.

On to `CCc1c(C)nc2ncnn2c1N1CCC(C(=O)Nc2cccc(C(C)=O)c2)CC1`, for which the z-score was 0.313.

`CCN1CCN(Cc2cccc(Oc3ccc(Cl)cc3)c2)CC1` came in with a z-score of 0.924.

Regarding `CCOC(=O)CN1CC23C=CC(O2)C(C(=O)Nc2ccc(OCC)cc2)C3C1=O` (stereo unspecified), the z-score was -0.308.

As to `O=C(Nc1ccc2c(c1)OCO2)c1cc2n(n1)C(C(F)(F)F)CC(c1ccccc1)N2` (stereo unspecified), the z-score is -0.19.

The compound `Clc1ccc(CON/C=N/c2ncnc3sccc23)c(Cl)c1` registered a z-score of -0.317.

For the compound `C=C(C)CSc1nc2c(cc1C#N)CCC2`, the z-score was -0.119.

Compound `O=c1c(-c2ccccc2)c(O)c2cccc3c2n1CCC3` yielded a z-score of -0.833.

In the case of `CCCCN(CCCC)C(=O)CSc1nnc2n(C)c(=O)c3c4c(sc3n12)CCCC4`, the z-score was active: -3.22.

The compound `COC(=O)CCC/C=C1/SCC(NC(=O)c2ccccc2)C1=O` (stereo unspecified) had a z-score of -0.448.

For `Cc1ccc(N2C(=O)N(CC(=O)N(C)Cc3ccccc3)C(=O)C2C)cc1` (stereo unspecified), the z-score amounted to 0.144.

`COc1cccc(C2C(C(=O)c3cccs3)=C(O)C(=O)N2c2cc(C)on2)c1` (stereo unspecified) showed a z-score of -2.01.

Turning to `Cc1cccc(OCC(=O)Nc2cccc(C(=O)Nc3ccccc3C(=O)O)c2)c1`, the z-score was -0.673.

`Cc1cccc(C)c1NC(=S)Nc1c(C)n(C)n(-c2ccccc2)c1=O` came in with a z-score of 0.214.

Compound `CCOC(=O)c1sc(=S)n(C)c1NC(=O)c1ccccc1C` displayed a z-score of -0.0912.

`CN(C)c1ccc(/C=N/N2C(=S)SC(C)(C)C2N(O)C(=O)Nc2ccc([N+](=O)[O-])cc2)cc1` (stereo unspecified) had a z-score of 0.883.

`CCN(CC)CCSc1nc(O)c(C(C)C)c(=O)[nH]1`: the z-score was 0.101.

The compound `CCOC(=O)C1=C(N)N(c2ccc(C)cc2)C2=C(C(=O)CCC2)C1c1cccs1` (stereo unspecified) showed a z-score of -0.711.

In turn, `CCC(Oc1ccccc1)C(=O)Nc1cc(C)on1` (stereo unspecified) yielded a z-score of 0.195.

In the case of `COC(=O)C(=O)/C=C(\O)c1ccc(C)cc1`, the z-score is -0.0478.

Take `O=C(COc1ccc(Cl)cc1Cl)Nn1c(=S)[nH]c2ncccc2c1=O`: the z-score came out at 1.69.

For the compound `COc1ccc(/C(C)=N/OC/C(O)=C(\C#N)c2nc3ccccc3[nH]2)cc1`, the z-score is -0.257.

For the compound `Cc1cc(C(F)F)n2ncc(C(=O)N3CCc4ccccc4C3)c2n1`, the z-score was -0.232.

The compound `CNC(=O)CN(C1CCCCC1)S(=O)(=O)c1ccc(OC)c(Cl)c1` came in with a z-score of -0.0915.

Take `CC(C)C(=O)Nc1cccc(NC(=O)c2ccc([N+](=O)[O-])cc2Cl)c1`: the z-score is -0.0969.

`CC(=NCCN1CCN(C(C)=C2C(=O)c3ccccc3C2=O)CC1)C1=C(O)CC(C)(C)CC1=O` gave a z-score of -0.34.

Consider `CCOC(=O)c1c(NC(=O)c2ccc(N3C(=O)C4C5C=CC(C5)C4C3=O)cc2)sc2c1CCCC2` (stereo unspecified), for which the z-score is -0.914.

Turning to `Cn1c(=O)n(CC(=O)OCc2ccccc2)c(=O)c2c1nc1n2CCCN1C1CCCCC1`, the z-score was -0.623.

`Nc1nc(C2CC2)c(Sc2sc(N)nc2C2CC2)s1` came in with a z-score of -0.619.

`O=[N+]([O-])c1ccc(/C=N/n2cnc3ccccc32)s1`: the z-score is -0.164.

`Cn1c(=O)c2c(nc(NCc3ccc4c(c3)OCO4)n2Cc2ccc(F)cc2)n(C)c1=O` registered a z-score of -0.915.

In turn, `O=C(Cn1c(=O)oc2ccccc21)c1ccccc1` had a z-score of 0.292.

With `C/C(=C\C(=O)C(F)(F)F)Nc1cc(C)cc(C)c1`, the z-score is -0.152.

Turning to `COc1cc2c(cc1OC)C1(CCCC1)CNC2C` (stereo unspecified), the z-score is 0.459.

`Cn1nc(C(F)(F)F)c(C(=O)Nc2ccc(Cl)cc2)c1Cl`: the z-score was -0.145.

Consider `CCCCCC(=O)Nc1ccc(Cc2ccncc2)cc1`, for which the z-score was found to be 0.275.

For `Cc1nc2ccccn2c1C(=O)NNS(=O)(=O)c1ccc(C(C)(C)C)cc1`, the z-score stood at 1.07.

For `COc1ccc(NC(=O)Nc2ccccc2C(=O)N2CCCC2)cc1`, the z-score was found to be 1.05.

In turn, `O=C(CSC1=NCCS1)NC1CCCC1` showed a z-score of -0.0519.

For `CCOC(=O)CSc1nnc(-c2ccco2)n1C`, the z-score was 0.096.

As to `COc1cc2cccc(OC)c(=O)c2c(O)c1OC`, the z-score is -0.371.

As for `CCOc1cc(S(=O)(=O)N2CC=C(c3ccc(F)cc3)CC2)c(OCC)cc1-n1cnnn1`, the z-score came to 0.498.

Regarding `COC(=O)COc1ccc(C2NC(=O)NC(c3ccccc3)=C2C(C)=O)cc1OC` (stereo unspecified), the z-score is -0.291.

The compound `COc1cc2nc(/C=C/c3ccc(N(C)C)cc3)sc2cc1SC` returned a z-score of -0.35.

`COC(=O)C(C(=O)OC)=C(/C=C/C=C/N(C)C)N(C)C` displayed a z-score of 0.735.

As for `OC(COc1ccc(OCc2ccccc2)cc1)CN1CCOCC1` (stereo unspecified), the z-score was -0.0779.

The compound `CCCn1c(SCC(=O)Nc2nc3ccccc3s2)nc2c1c(=O)n(C)c(=O)n2C` returned a z-score of -1.19.

As to `N#CC1(c2ccc(NC(=O)c3ccccc3)cc2)CCCC1`, the z-score is -0.494.

As for `O=C(CNC(=O)Cc1ccccc1)NCC(=O)OCc1ccccc1` (PhAc-Gly-Gly-OBn), the z-score is -0.213.

On to `CC(=O)N1CCc2cc(S(=O)(=O)CCC(=O)Nc3ccc4c(c3)OCCO4)ccc21`, for which the z-score came out at 0.183.

Compound `COC(=O)c1ccc(NC(=O)CC2C(=O)N(c3ccc(C)cc3)C(=O)N2CC(C)C)cc1` (stereo unspecified) returned a z-score of 0.297.

Turning to `Nc1nc(CN2CCN(c3cccc(Cl)c3)CC2)nc(N2CCCc3ccccc32)n1`, the z-score is -0.167.

Compound `O=C(O)c1cccc(N2C(=O)C3CC=CCC3C2=O)c1` (stereo unspecified) returned a z-score of 0.223.

Turning to `O=C(NCc1cccc(C(F)(F)F)c1)c1cc(Cl)cc(Cl)c1`, the z-score is -0.1.

On to `Cc1cc(C)cc(N2C(=O)CC(n3nc(C)cc3C)C2=O)c1` (stereo unspecified), for which the z-score was -0.125.

Take `COc1ccc(C(=S)N(C)C)cc1OC`: the z-score worked out at 0.735.

`COC(=O)c1c(N)nc(C)n1-c1ccc(OC)cc1` yielded a z-score of 0.698.

`CCSCCNC(=O)c1cncc(Br)c1` displayed a z-score of -0.0461.

As to `O=C(CSc1nc2ccccc2o1)N1c2ccccc2Sc2ccc(C(F)(F)F)cc21`, the z-score is -0.31.

For `Cc1ccc(C(=O)CSc2cc(C)nc(SCC(=O)c3ccccc3)n2)cc1`, the z-score was -0.324.

In turn, `O=C(Cn1c(=O)sc2ccccc21)Nc1ccc2c(c1)OCCO2` registered a z-score of -0.0557.

With `CCOC(=O)N1CCN(C(=S)NC2CCCCC2)CC1`, the z-score was -0.473.

`CCCCc1ccc(NC(=O)C2CCN(S(C)(=O)=O)CC2)cc1`: the z-score came out at 1.45.

Take `O=C(Oc1ccc2c(c1)OCO2)c1ccc(F)cc1Cl`: the z-score stood at 0.248.

`O=C(CN1C(=O)c2ccccc2S1(=O)=O)NCc1ccc2c(c1)OCO2`: the z-score was -0.00977.

On to `O=C1NC(=O)/C(=C/c2ccccc2Oc2ccc(Cl)cc2)S1`, for which the z-score is -0.292.

The compound `O=C1NC(=O)c2cc(NC(=O)C3CCCO3)ccc21` (stereo unspecified) gave a z-score of -0.127.

`O=C(NCc1cccnc1)C1COc2ccccc2O1` (stereo unspecified): the z-score amounted to 0.496.

Take `COC(=O)CSc1nnc(-c2ccccc2OC)n1-c1ccc(C)cc1`: the z-score was -0.487.

Consider `Cc1ccccc1-c1nc(CS(=O)CC(=O)NCCN2CCN(Cc3ccccc3)CC2)c(C)o1` (stereo unspecified), for which the z-score came to 0.361.

On to `CCn1c(NC)cc(=O)n(C)c1=O`, for which the z-score was -0.2.

Regarding `CCCCn1c(SCC(=O)N2CCC(C)CC2)nc2ccsc2c1=O`, the z-score was -1.86.

Turning to `Cc1ccc(C(=O)NNC(=O)c2cc3cc4ccccc4nc3s2)cc1`, the z-score worked out at 0.506.

For `CCCC(=O)Nc1sc(C)c(-c2ccc(OC)cc2)c1C#N`, the z-score was determined as 0.0161.

`O=C(NNS(=O)(=O)c1ccc(Cl)cc1)c1ccc(S(=O)(=O)N2CCCCC2)cc1` gave a z-score of -0.21.

Turning to `N#Cc1ncc(C(F)(F)F)cc1Sc1ccc(N)cc1`, the z-score was -0.135.

In the case of `O=C(Cn1cnc2c(cnn2-c2ccccc2)c1=O)NC1CCCC1`, the z-score is -0.51.

The compound `CC(C)N(Cc1nc(-c2ccc(Cl)cc2)no1)C(=O)c1cccs1` had a z-score of -0.512.

`Cc1cc(NC(=O)c2cc3ncc(Br)cn3n2)no1` registered a z-score of -0.255.

For the compound `Clc1ccccc1/C=N/c1cc(-c2ccccc2)nn1-c1ccccc1`, the z-score was found to be 0.273.

Compound `O=C(NCc1ccc(Cl)c(Cl)c1)c1ccco1` gave a z-score of 0.43.

`O=C(CNC(=O)c1ccccc1F)NCCOc1cccc(Cl)c1Cl` had a z-score of -0.0129.

Take `COCCCN1C(=O)C(O)=C(C(C)=O)C1c1ccccn1` (stereo unspecified): the z-score is 0.108.

As to `COc1ccc(Cl)cc1C(=O)Nn1c(C)nc2ccccc2c1=O`, the z-score is -0.165.
